Experimental data as given in patent US9399028B2, “Treatment of drug resistant cancer” (ROCKEFELLER UNIVERSITY (THE), priority 2012, dated 2016).

Key:
[1] = system: B16F10 mouse melanoma cells; experiment: Subcutaneous B16F10 tumor growth in C57BL/6 mice; type: in vivo; conditions: orally in chow after tumors reached 5-10 mm3
[2] = system: human melanoma cells (MeWo, MeWo-LM2, HT-144, SK-Mel-2, SK-Mel-334.2); experiment: Trans-well matrigel cell invasion assay, melanoma cells; type: cell-based; conditions: 1 μM for 72 hours, compared with lower potency LXR agonists
Procedure: Cancer cells were serum-starved in 0.2% FBS DMEM-based media for 12 hours. Trans-well invasion chambers (354480, BD Biosciences, Bedford, Mass.) were pre-equilibrated prior to beginning the assay by adding 0.5 mL of starvation media to the top and bottom chambers. After 30 minutes, the media in the top chamber was removed, and 0.5 mL of media containing 1×10^5 cancer cells was added into each matrigel-coated trans-well insert and incubated at 37° C. for 24 hours. […] The basal side of each insert was imaged using an inverted fluorescence microscope (Zeiss Axiovert 40 CFL) at 5× magnification, taking three representative images for each insert. The number of invaded cells was quantified using ImageJ (NIH). […]
The cells were then serum starved for 16 hours in 0.2% FBS media in the presence of each corresponding drug or DMSO. […] Meanwhile, cancer cells were trypsinized and viable cells were counted using trypan blue. […] The basal side of each insert was imaged using an inverted fluorescence microscope (Zeiss Axiovert 40 CFL) at 5× magnification, and the number of DAPI-positive cells was quantified using ImageJ.

CC(C)(O)c1cn(-c2ccc(-c3cc(F)c(CO)c(S(C)(=O)=O)c3)cc2F)c(C(C)(C)c2c(Cl)cccc2Cl)n1 [Compound 12]
melanoma primary tumor growth in vivo [1]: significantly inhibited | inhibition of cancer progression phenotypes (cell invasion, endothelial recruitment) [2]: more effective
